Assay results published in the RNAGym collection of RNA variant scans (doi:10.7554/elife.90254).
Read counts are not given, so values of variants with three or more changes are uncertain.

B1: LINE1-full (parent)
chain: UACGUAGGUGGUUUUCCCCUGAUAGUGCUAAGGGGGCCUGGAAGUUUGGACUGGGCAGAGCUCAACACAGCGUGGCAAAGUGGCUGUGGCUAGACUGCCUCUCUGGAUUCCUCGUCACUCAGCAGGGCAUCUCUGAGAGAAAUGCC

Variants of: B1
Test: self-cleavage, relative activity (ratio to wild type); higher = more cleavage; in vitro, sequencing; the parent is a self-cleaving ribozyme
In the case of C28A U73C A78G, the self-cleavage is reported as 0.98.
Work on A24U U45C A67U U115A yielded a self-cleavage of 0.21.
Variant U112C A124U A136G has a self-cleavage of 1.32.
For A2G U9G A59G U108C, the self-cleavage was 0.
With A2G U100C U104C the self-cleavage was 1.31.
A2G U39C G40A A67C showed a self-cleavage of 0.19.
With U87A A94G U119A the self-cleavage was 0.05.
A42U U62C U108C U119A gave a self-cleavage of 0.06.
For A78G U112A U115C A129G, the self-cleavage was 0.
In the case of U39A A64U A67C A92G U134G A140G, the self-cleavage is reported as 0.07.
A79G A121U C123U gave a self-cleavage of 0.97.
G36U A65U U134A showed a self-cleavage of 0.2.
With U14C U112C A129C the self-cleavage was 2.54.
U5C A31U U52A U109A A124G showed a self-cleavage of 0.61.
Work on U13C U15C C51U G93A U102C U109A U130C yielded a self-cleavage of 0.03.
U46C C56U A65G A79G U130C showed a self-cleavage of 0.03.
With A6G U13C U20C U115C A142G the self-cleavage was 0.
G82A U112C A141G A142G showed a self-cleavage of 2.57.
For A22G A57G U73A A78G, the self-cleavage was 0.27.
Work on A43U A69U U85A yielded a self-cleavage of 0.43.
In the case of A67U A129G U132C, the self-cleavage is reported as 0.11.
A31U U96C U112C A136G showed a self-cleavage of 0.
Work on G21U A67G U91C yielded a self-cleavage of 0.11.
A6U A92C U112A C145G showed a self-cleavage of 0.06.
In the case of U26C G70A U143A, the self-cleavage is reported as 0.12.
For A94G U100C A142G, the self-cleavage was 0.
In the case of A2G G4A U14C C37A A78U U109C U119C, the self-cleavage is reported as 1.86.
Variant U12C U15C A57G G74A A107G G114A has a self-cleavage of 1.1.
Variant A94G A107G A121C has a self-cleavage of 0.84.
Work on U5C A6G U12G U47C A64U U115C yielded a self-cleavage of 2.76.
In the case of G11A U115C G135A, the self-cleavage is reported as 1.43.
Work on U13C U52C A69U yielded a self-cleavage of 0.31.
Variant U1C A65U A94G has a self-cleavage of 0.18.
In the case of U12C U46C A57G A64C, the self-cleavage is reported as 0.57.
A64G A94U U104C A136G A138G gave a self-cleavage of 0.
Variant A2C U20G U130C has a self-cleavage of 0.85.
G8A G34A U73G U108C showed a self-cleavage of 1.16.
In the case of U1A U14C U39C, the self-cleavage is reported as 1.06.
Work on A64U G89C A94G A141G yielded a self-cleavage of 0.02.
In the case of U13C U15C G125A, the self-cleavage is reported as 1.12.
For C19U U62C A136G A142G, the self-cleavage was 0.07.
Variant A43G U62C A65G has a self-cleavage of 0.22.
In the case of U62A A78G U85C G139A, the self-cleavage is reported as 0.
In the case of U26C G48U U119C A136G, the self-cleavage is reported as 1.46.
Variant A30U A129U U130C has a self-cleavage of 0.15.
With A6C U13C G36A the self-cleavage was 0.78.
Work on A50G A78G U132C yielded a self-cleavage of 0.
G21A U62C U96C showed a self-cleavage of 0.13.
In the case of U87C U115A C133U, the self-cleavage is reported as 0.28.
Variant A30U U47C A57U C84U U130C has a self-cleavage of 0.13.
With G33U A94G A121G U132C the self-cleavage was 0.17.
With A22G A42G A142G the self-cleavage was 1.36.
With U52C A94G U102C the self-cleavage was 0.
Work on U26C U62C U81A C84G yielded a self-cleavage of 0.07.
In the case of A42G A124U U130A, the self-cleavage is reported as 1.4.
Variant C61U A94U U109C U132C has a self-cleavage of 0.02.
With U14C U20C G27A A69G U143A the self-cleavage was 0.42.
Variant U23C U26C C66U U102C A124G has a self-cleavage of 0.
U9C G35A U46C U81C A121G gave a self-cleavage of 2.3.
Variant C19U U46C U104A has a self-cleavage of 0.9.
Work on U1C U5C A124G yielded a self-cleavage of 0.2.
U1C U14C C51U U100C C131A showed a self-cleavage of 0.63.
With G49U G83A A140G the self-cleavage was 0.65.
Variant U14A U47C A79U has a self-cleavage of 1.26.
U102A U108A U119C gave a self-cleavage of 1.62.
Work on U23C A57G A77U yielded a self-cleavage of 0.6.
Variant U47C A64U G125C has a self-cleavage of 0.69.
In the case of G4A C61U A136G, the self-cleavage is reported as 0.05.
With A59U U73C C113A C146U the self-cleavage was 1.23.
Work on U102C A107U A124G yielded a self-cleavage of 2.43.
Variant U12G U26C U73A U104C has a self-cleavage of 0.66.
Work on U14C U112A G125A yielded a self-cleavage of 1.16.
With U45C A50G U132C the self-cleavage was 1.23.
With U1A A2G A78G A138U the self-cleavage was 0.96.
In the case of U9A U14C C84G A141G, the self-cleavage is reported as 0.17.
A42G A64G G126U showed a self-cleavage of 0.28.
Work on U12C A79G A141G yielded a self-cleavage of 0.93.
A42G A69U U112C showed a self-cleavage of 0.05.
G55U U62C U134C gave a self-cleavage of 0.01.
Variant U26A A31C A57U A79G has a self-cleavage of 0.
U39A U87C C128G showed a self-cleavage of 0.27.
A2G U47A A50C U62A U112C gave a self-cleavage of 0.
U29C U87C A129U gave a self-cleavage of 0.41.
Variant U13G U104C G126A has a self-cleavage of 1.23.
U9C G21U U52A showed a self-cleavage of 1.61.
For A31G A138G G144A, the self-cleavage was 1.02.
Work on U23C U96A U100C G106A U112C A121G yielded a self-cleavage of 0.
With A22G U112C A138U the self-cleavage was 1.21.
Work on A31G A77G A79G C110A A142G yielded a self-cleavage of 0.
Variant A43U U87A U109G A117G U134A has a self-cleavage of 0.07.
With A77U A136U A142G the self-cleavage was 1.1.
Variant U87A U108C U143C has a self-cleavage of 0.
Variant A50G C103U U134C A138G has a self-cleavage of 0.84.
C17U A65U A140G A142G gave a self-cleavage of 0.2.
In the case of G41A U62C A65G, the self-cleavage is reported as 0.01.
With U13A A42G G88A the self-cleavage was 0.06.
U9A U47C U108A gave a self-cleavage of 0.75.
With U23C U39C U45C U132C the self-cleavage was 0.77.
Work on U9C U13C C61A U102A U143A yielded a self-cleavage of 0.14.
Work on A22G G35C U134C yielded a self-cleavage of 2.06.
In the case of U9C U46C U87A U132C, the self-cleavage is reported as 0.21.
Variant U12G G88A A107C has a self-cleavage of 0.
With G10A U15A A65G U109C the self-cleavage was 0.22.
For C16U A42G U130A A140G, the self-cleavage was 2.51.
For A6G A43G U45A, the self-cleavage was 0.91.
With A24U U102A A107G A141G the self-cleavage was 2.72.
Work on U13C U14C A30U A65G yielded a self-cleavage of 0.36.
Work on U1C C66U A107G yielded a self-cleavage of 0.09.
For U52A U119C A140G, the self-cleavage was 1.82.
With U14C U115G A138G the self-cleavage was 2.08.
For G70C C84G C101A, the self-cleavage was 1.23.
Work on A50G A64G C66A A78U U87C U132C yielded a self-cleavage of 0.38.
A77U U85C U108C G126A showed a self-cleavage of 0.16.
A107U A117G U130C showed a self-cleavage of 1.31.
C84U U87C A129G gave a self-cleavage of 0.01.
With U12G A50G U81C U104A the self-cleavage was 0.92.
G54A U73C U115C A142G showed a self-cleavage of 2.49.
A22G A50G C51U G58U A78G U91C showed a self-cleavage of 0.03.
For U13C U29C A79U, the self-cleavage was 2.45.
For A6U A31G G35C U115A, the self-cleavage was 1.46.
Variant G34A C128U A129G has a self-cleavage of 1.22.
In the case of A69G U115A A136G, the self-cleavage is reported as 0.32.
With U13C C28U C66U A121G A142G G144A the self-cleavage was 0.07.
For C37U U47A U109C U115C U130C, the self-cleavage was 1.97.
With U20C G25A U130C A138G the self-cleavage was 1.23.
Work on U29A U100C A140G yielded a self-cleavage of 2.02.
In the case of U9C U85C G97A A136G, the self-cleavage is reported as 0.09.
With U15C U46C G54A A57G U104A A140U the self-cleavage was 0.11.
U13A A67C U108C gave a self-cleavage of 0.18.
In the case of U15A U39C U108A, the self-cleavage is reported as 0.69.
U13C A77G U81A gave a self-cleavage of 2.81.
U12C G40A U112A showed a self-cleavage of 0.97.
Variant U5C U39A A57U U73C U134A has a self-cleavage of 0.53.
In the case of A6G C38U A64G U112C, the self-cleavage is reported as 0.22.
Work on U1A U5A A31G G55A yielded a self-cleavage of 0.7.
For A50G A59G A107G, the self-cleavage was 0.
For U73A A78U U96C, the self-cleavage was 0.16.
For U13C G114A U130C, the self-cleavage was 0.87.
In the case of U52C A67G G114U A117U, the self-cleavage is reported as 0.52.
With A2C G93A A138G the self-cleavage was 0.
U15C A64C A65G A94G C120U showed a self-cleavage of 0.
With U26A G34U A78G the self-cleavage was 0.51.
With C28U A67C C128U the self-cleavage was 0.09.
For C68U U87C C116U, the self-cleavage was 0.06.
In the case of U62A A79G U91A U96C, the self-cleavage is reported as 0.1.
For A64G A78U U87A U102C, the self-cleavage was 0.09.
For A6G U14C A22G C90U, the self-cleavage was 0.15.
A59G A67G G105A U115C gave a self-cleavage of 0.
Variant A42G U52A U96C A140U U143A has a self-cleavage of 0.26.
For U15C A30C A57G, the self-cleavage was 0.72.
U20A A136G U143C showed a self-cleavage of 1.72.
Variant G72A A78U U96C U112A has a self-cleavage of 0.13.
Variant A64G C95U C145G has a self-cleavage of 0.07.
Work on U13C A57G U62C A92G yielded a self-cleavage of 0.
With U91C U109A A124G A138U the self-cleavage was 1.6.
A22G A57U U73C U85A A141G showed a self-cleavage of 0.07.
Work on U12C U15C U26A C110U yielded a self-cleavage of 1.27.
For U14C U39A A67G A77U U85C U91A A142G, the self-cleavage was 0.
A57G C68U A121G showed a self-cleavage of 0.07.
A22G A30G A50U A59G G114U gave a self-cleavage of 0.36.
Work on A6G U13C A24G U39C C71U U143G yielded a self-cleavage of 1.06.
For C61G A79C C90U, the self-cleavage was 0.05.
Work on A22G U62A A77G U85A G139A yielded a self-cleavage of 0.06.
With U47C U102C U132A the self-cleavage was 2.92.
U29C C68U U100C A136U gave a self-cleavage of 0.46.
For U29A A57U A69G A107G, the self-cleavage was 0.13.
For A6G C28U U104C, the self-cleavage was 0.88.
